The other results are listed elsewhere or left out. These are noisy estimates, calculated here from bound and input reads.
What follows are sequences tested against T1, Pho4 (S. cerevisiae) (UniProt P07270) (assay: relative binding free energy (BET-seq); higher = weaker binding). Conditions: reference: library average.
T1 sequence: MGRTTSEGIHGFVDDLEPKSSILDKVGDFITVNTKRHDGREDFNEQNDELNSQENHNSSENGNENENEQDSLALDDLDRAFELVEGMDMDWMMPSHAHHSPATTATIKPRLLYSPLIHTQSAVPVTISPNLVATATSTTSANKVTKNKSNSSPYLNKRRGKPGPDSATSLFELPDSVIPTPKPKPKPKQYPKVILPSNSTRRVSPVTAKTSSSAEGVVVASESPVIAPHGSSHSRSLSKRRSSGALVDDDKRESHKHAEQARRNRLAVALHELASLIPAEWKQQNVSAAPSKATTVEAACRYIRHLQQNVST

Row | Sequence | relative binding free energy [kcal/mol]
1 | GGTCCCACGTGTTTTG | 0.05
2 | ATGACCACGTGTGGCG | 0.04
3 | GTTGGCACGTGAGTCT | 0.16
4 | TTTTACACGTGCTGAT | -0.06
5 | GTATACACGTGTTACG | 0.08
6 | TGAGGCACGTGGGACT | -0.15
7 | TAGTACACGTGTTATT | -0.05
8 | GTGGGCACGTGCTGGA | -0.09
9 | AGTTCCACGTGTGGGC | 0.12
10 | GAGTGCACGTGCTATG | 0.14
11 | ATAAGCACGTGGGTTC | -0.31
12 | GAGTTCACGTGCTTTT | 0.21
13 | TATAACACGTGTTGGA | -0.04
14 | GTAGTCACGTGGGATA | 0.01
15 | GAGCGCACGTGGTTGT | -0.09
16 | TGATACACGTGGTATA | 0
17 | AGGAGCACGTGTCGTG | -0.11
18 | AGTCTCACGTGGTGGC | 0.28
19 | ATATGCACGTGCGGTT | -0.01
20 | AGTGTCACGTGTATGA | 0.09
21 | CAGGGCACGTGTTTTG | 0
22 | GTTGTCACGTGGGCTC | -0.05
23 | TATAACACGTGGTAGA | -0.02

Row | Sequence | relative binding free energy [kcal/mol]
24 | GGGTTCACGTGGGCTC | 0.2
25 | TCGGCCACGTGTAGGG | -0.16
26 | GAAATCACGTGGGGGG | 0.05
27 | GAGTGCACGTGATCGT | 0.26
28 | GGTTGCACGTGTATAT | 0.09
29 | AATGTCACGTGTCGTT | 0.19
30 | TGTATCACGTGCCGGT | 0.03
31 | AGATTCACGTGATGGC | 0.32
32 | CGTAGCACGTGTGTGG | -0.13
33 | GGTACCACGTGGTATT | 0
34 | AGTTGCACGTGGATTC | 0.05
35 | GGGAACACGTGGGGGC | 0
36 | CGCTTCACGTGGGGTT | 0.14
37 | CAGGTCACGTGTGGTA | 0.16
38 | AGAGGCACGTGCTGCG | -0.19
39 | TTTGACACGTGCGATG | -0.16
40 | TAATACACGTGGTGTT | -0.12
41 | AGGTTCACGTGGAAGT | 0.35
42 | CGGTTCACGTGGATTA | 0.27
43 | TTTGGCACGTGGCTAA | -0.16
44 | GGGGTCACGTGGCAAT | 0.04
45 | TCGGACACGTGGTATA | 0.14
46 | GTCAGCACGTGGTTAG | -0.19

Row | Sequence | relative binding free energy [kcal/mol]
47 | GTTAGCACGTGTCGTC | 0.03
48 | GGGGACACGTGTTGTT | 0.09
49 | AATGCCACGTGGAGGT | -0.1
50 | GTGAACACGTGGCGTT | 0
51 | ATGCGCACGTGGGCGT | -0.22
52 | GTGGGCACGTGTTGTG | 0
53 | AAGTGCACGTGTGTAT | -0.06
54 | CGGTGCACGTGGGTTA | -0.19
55 | TGTGACACGTGGTGTT | -0.03
56 | CTAGACACGTGTATGG | 0.08
57 | CGTGGCACGTGACATT | 0.06
58 | TGTAACACGTGTTAGC | -0.06
59 | CGGAGCACGTGTGGGC | -0.01
60 | GTAGCCACGTGTTGTG | 0.03
61 | GTTTGCACGTGATTGC | 0.08
62 | TCGGGCACGTGCTTGG | -0.08
63 | ATTGGCACGTGAATAT | -0.05
64 | TCGCTCACGTGGTGTG | 0.11
65 | TGTAGCACGTGGGAAG | -0.2
66 | TTGGACACGTGCTTGA | 0.01
67 | GATGTCACGTGGAGAG | 0.17
68 | GATTACACGTGTTGGA | 0.15
69 | TTGAGCACGTGATTTA | 0

Row | Sequence | relative binding free energy [kcal/mol]
70 | TTCTTCACGTGGTGGT | 0.23
71 | CCTGGCACGTGTATGT | -0.05
72 | GGCAACACGTGGGTCT | 0.13
73 | GTGCTCACGTGATGAT | 0.43
74 | TGGTACACGTGTTAAG | 0.18
75 | AGGTGCACGTGTGAAA | 0.15
76 | ATGAGCACGTGTTTAT | -0.07
77 | AGAATCACGTGGGGTG | 0.05
78 | TGGGGCACGTGATATA | 0.16
79 | GGGGTCACGTGGCTTA | 0.14
80 | TTTGGCACGTGACTGC | 0
81 | TTAGCCACGTGCGTTG | -0.12
82 | TGGCGCACGTGTGGGT | -0.01
83 | CTCGGCACGTGGTTTA | -0.09
84 | TCGGGCACGTGAGGGG | 0.19
85 | GGGGGCACGTGGGAAC | -0.23
86 | GTGTTCACGTGTGTCT | 0.3
87 | TTATACACGTGCTGAT | -0.01
88 | TGATGCACGTGCTTGT | -0.03
89 | TAGCACACGTGTAGGG | 0.12
90 | TTTAGCACGTGGTGAT | -0.04
91 | TAGTACACGTGGCGGA | -0.01
92 | TTGGGCACGTGAAACG | 0.21

Row | Sequence | relative binding free energy [kcal/mol]
93 | GGGTTCACGTGACAGG | 0.49
94 | TGTTCCACGTGGCTTT | 0.05
95 | TTCTGCACGTGGTTGA | -0.14
96 | TGGGGCACGTGCGGGC | -0.13
97 | GAGAGCACGTGAGGTT | 0.22
98 | TGTGTCACGTGGATTG | 0.14
99 | ACTATCACGTGGAGGT | 0.16
100 | GTTGTCACGTGTTCTG | 0.27
101 | TTAGGCACGTGGTTGA | -0.01
102 | GGTTGCACGTGTATGT | 0.11
103 | GGTAACACGTGGTTGC | -0.02
104 | TGTTACACGTGCGGGA | 0.06
105 | TGTCGCACGTGGGTCT | -0.38
106 | TGTTTCACGTGGGAGC | 0.24
107 | CGTGTCACGTGTGTGG | 0.02
108 | TGAGTCACGTGTGTAC | 0.21
109 | GGGTGCACGTGCCCGG | -0.19
110 | GATATCACGTGGGCAT | 0.07
111 | TCTCTCACGTGGTTTT | 0.18
112 | GTAGGCACGTGAATGA | 0.16
113 | GTCGGCACGTGGGGTT | -0.06
114 | GGGGCCACGTGGGGAT | -0.07
115 | TGGGGCACGTGAAATA | 0.06

Reference: the BET-seq Pho4 binding data (Le et al. 2018)
